From patent US8648074B2, “Substituted octahydropyrrolo[1,2-a]pyrazine sulfonamides as calcium channel blockers” (AbbVie Inc., priority 2011, dated 2014)

Target: human Cav2.2 (Homo sapiens, UniProt Q00975)
Test: In vitro assessment of calcium channel activity using FLIPR (Ca2+ influx in IMR32 cells)
Assay type: cell-based
Details: IMR32 cells endogenously expressing human Cav2.2; Calcium 4 dye, 60 minute pre-incubation, 2 μM nifedipine, depolarized with 80 mM KCl; average of at least two runs unless marked *

| IC50 | Structure (SMILES) |
| --- | --- |
| 1130 nM | O=S(=O)(c1cccc(C(F)(F)F)c1)N1CCN2C[C@H](Oc3ccc(Br)cn3)C[C@H]2C1 [Example 89, (7R,8aS)-7-[(5-bromopyridin-2-yl)oxy]-2-{[3-(trifluoromethyl)phenyl]-sulfonyl}octahydropyrrolo[1,2-a]pyrazine] |
| 720 nM | O=S(=O)(c1cccc(C(F)(F)F)c1)N1CCN2C[C@H](Oc3ccc(C4CC4)cn3)C[C@H]2C1 [Example 90, (7R,8aS)-7-[(5-cyclopropylpyridin-2-yl)oxy]-2-{[3-(trifluoromethyl)phenyl]-sulfonyl}octahydropyaolo[1,2-a]pyrazine] |
| 2690 nM | O=S(=O)(c1cccc(C(F)(F)F)c1)N1CCN2C[C@H](Oc3cccc(Br)n3)C[C@H]2C1 [Example 91, (7R,8aS)-7-[(6-bromopyridin-2-yl)oxy]-2-{[3-(trifluoromethyl)phenyl]-sulfonyl}octahydropyaolo[1,2-a]pyrazine] |
| 2380 nM | O=S(=O)(c1cccc(C(F)(F)F)c1)N1CCN2C[C@H](Oc3cccc(C4CC4)n3)C[C@H]2C1 [Example 92, (7R,8aS)-7-[(6-cyclopropylpyridin-2-yl)oxy]-2-{[3-(trifluoromethyl)-phenyl]sulfonyl}octahydropyrrolo[1,2-a]pyrazine] |
| 1570 nM | O=S(=O)(c1cccc(C(F)(F)F)c1)N1CCN2C[C@H](Oc3ncc(Br)s3)C[C@H]2C1 [Example 93, (7R,8aS)-7-[(5-bromo-1,3-thiazol-2-yl)oxy]-2-{[3-(trifluoromethyl)-phenyl]sulfonyl}octahydropyrrolo[1,2-a]pyrazine] |
| 1440 nM | O=S(=O)(c1cccc(C(F)(F)F)c1)N1CCN2C[C@H](Oc3ncc(C4CC4)s3)C[C@H]2C1 [Example 94, (7R,8aS)-7-[(5-cyclopropyl-1,3-thiazol-2-yl)oxy]-2-{[3-(trifluoromethyl)-phenyl]sulfonyl}octahydropyrrolo[1,2-a]pyrazine] |
| 2540 nM | O=S(=O)(c1cccc(F)c1F)N1CCN2C[C@H](Oc3cnc(C4CC4)cn3)C[C@H]2C1 [Example 95, (7R,8aS)-7-[(5-cyclopropylpyrazin-2-yl)oxy]-2-[(2,3-difluorophenyl)-sulfonyl]octahydropyrrolo[1,2-a]pyrazine] |
| 780 nM | O=S(=O)(c1cccc(F)c1N1CCCCC1)N1CCN2C[C@H](Oc3cnc(C4CC4)cn3)C[C@H]2C1 [Example 96, (7R,8aS)-7-[(5-cyclopropylpyrazin-2-yl)oxy]-2-{[3-fluoro-2-(piperidin-1-yl)-phenyl]sulfonyl}octahydropyrrolo[1,2-a]pyrazine] |
| 1850 nM | CC(C)(C)c1ccc(CO[C@@H]2C[C@H]3CN(S(=O)(=O)c4cccc(C(F)(F)F)c4)CCN3C2)cc1 [Example 97, (7R,8aS)-7-[(4-tert-butylbenzyl)oxy]-2-{[3-(trifluoromethyl)phenyl]-sulfonyl}octahydropyrrolo[1,2-a]pyrazine] |
| 1040 nM | O=S(=O)(c1cccc(C(F)(F)F)c1)N1CCN2C[C@H](OCc3ccc(OC(F)(F)F)cc3)C[C@H]2C1 [Example 98, (7R,8aS)-7-{[4-(trifluoromethoxy)benzyl]oxy}-2-{[3-(trifluoromethyl)-phenyl]sulfonyl}octahydropyrrolo[1,2-a]pyrazine] |
| 1140 nM | O=S(=O)(c1cccc(C(F)(F)F)c1)N1CCN2C[C@H](OCc3ccc(C(F)(F)F)cc3)C[C@H]2C1 [Example 99, (7R,8aS)-7-{[4-(trifluoromethyl)benzyl]oxy}-2-{[3-(trifluoromethyl)-phenyl]sulfonyl}octahydropyrrolo[1,2-a]pyrazine] |
| 3000 nM | CC(F)(F)c1ccc(S(=O)(=O)N2CCN3C[C@H](Oc4cnc(C5CC5)cn4)C[C@H]3C2)cc1 [Example 100, (7R,8aS)-7-[(5-cyclopropylpyrazin-2-yl)oxy]-2-{[4-(1,1-difluoroethyl)-phenyl]sulfonyl}octahydropyrrolo[1,2-a]pyrazine] |
| 930 nM | O=S(=O)(c1cccc(C(F)(F)F)c1)N1CCN2C[C@H](Oc3cnc(C4CCC4)cn3)C[C@H]2C1 [Example 101, (7R,8aS)-7-[(5-cyclobutylpyrazin-2-yl)oxy]-2-{[3-(trifluoromethyl)phenyl]-sulfonyl}octahydropyrrolo[1,2-a]pyrazine] |
| 1900 nM | O=S(=O)(c1ccc(C(F)(F)F)cc1)N1CCN2C[C@H](Oc3cnc(C4CCC4)cn3)C[C@H]2C1 [Example 102, (7R,8aS)-7-[(5-cyclobutylpyrazin-2-yl)oxy]-2-{[4-(trifluoromethyl)phenyl]-sulfonyl}octahydropyrrolo[1,2-a]pyrazine] |
| 2290 nM | O=S(=O)(c1cccc(-c2ccccc2)c1)N1CCN2C[C@H](Oc3cnc(C4CC4)cn3)C[C@H]2C1 [Example 103, (7R,8aS)-2-(biphenyl-3-ylsulfonyl)-7-[(5-cyclopropylpyrazin-2-yl)oxy]-octahydropyrrolo[1,2-a]pyrazine] |
| 1660 nM | CC(C)c1ccc(S(=O)(=O)N2CCN3C[C@H](Oc4cnc(C5CC5)cn4)C[C@H]3C2)cc1 [Example 104, (7R,8aS)-7-[(5-cyclopropylpyrazin-2-yl)oxy]-2-[(4-isopropylphenyl)-sulfonyl]octahydropyrrolo[1,2-a]pyrazine] |

| IC50 | Structure (SMILES) |
| --- | --- |
| 3990 nM | COc1cccc(S(=O)(=O)N2CCN3C[C@H](Oc4cnc(C5CC5)cn4)C[C@H]3C2)c1 [Example 105, (7R,8aS)-7-[(5-cyclopropylpyrazin-2-yl)oxy]-2-[(3-methoxyphenyl)sulfonyl]-octahydropyrrolo[1,2-a]pyrazine] |
| 1060 nM | COc1ccc(S(=O)(=O)N2CCN3C[C@H](Oc4cnc(C5CC5)cn4)C[C@H]3C2)cc1C(F)(F)F [Example 106, (7R,8aS)-7-[(5-cyclopropylpyrazin-2-yl)oxy]-2-{[4-methoxy-3-(trifluoromethyl)phenyl]sulfonyl}octahydropyrrolo[1,2-a]pyrazine] |
| 4360 nM | CC(=O)c1cccc(S(=O)(=O)N2CCN3C[C@H](Oc4cnc(C5CC5)cn4)C[C@H]3C2)c1 [Example 108, 1-(3-{[(7R,8aS)-7-[(5-cyclopropylpyrazin-2-yl)oxy]hexahydropyrrolo[1,2-a]-pyrazin-2(1H)-yl]sulfonyl}phenyl)ethanone] |
| 1610 nM | CC(F)(F)c1cccc(S(=O)(=O)N2CCN3C[C@H](Oc4cnc(C5CC5)cn4)C[C@H]3C2)c1 [Example 109, (7R,8aS)-7-[(5-cyclopropylpyrazin-2-yl)oxy]-2-{[3-(1,1-difluoroethyl)-phenyl]sulfonyl}octahydropyrrolo[1,2-a]pyrazine] |
| 4900 nM | Cc1ccc(S(=O)(=O)N2CCN3C[C@H](Oc4cnc(C5CC5)cn4)C[C@H]3C2)cc1 [Example 110, (7R,8aS)-7-[(5-cyclopropylpyrazin-2-yl)oxy]-2-[(4-methylphenyl)sulfonyl]-octahydropyrrolo[1,2-a]pyrazine] |
| 2900 nM | O=S(=O)(c1cccc(C(F)(F)F)c1)N1CCN2C[C@H](Oc3cnc(C4CC4)cn3)C[C@@H]2C1 [Example 111, (7R,8aR)-7-[(5-cyclopropylpyrazin-2-yl)oxy]-2-{[3-(trifluoromethyl)phenyl]-sulfonyl}octahydropyrrolo[1,2-a]pyrazine] |
| 5890 nM | O=S(=O)(c1cc(Br)cc(C(F)(F)F)c1)N1CCN2C[C@H](Oc3cnc(C4CC4)cn3)C[C@H]2C1 [Example 112, (7R,8aS)-2-{[3-bromo-5-(trifluoromethyl)phenyl]sulfonyl}-7-[(5-cyclopropylpyrazin-2-yl)oxy]octahydropyrrolo[1,2-a]pyrazine] |
| 940 nM | C=C(C)c1cnc(O[C@@H]2C[C@H]3CN(S(=O)(=O)c4cccc(C(C)(C)C)c4)CCN3C2)cn1 [Example 113, (7R,8aS)-2-[(3-tert-butylphenyl)sulfonyl]-7-{[5-(prop-1-en-2-yl)pyrazin-2-yl]oxy}octahydropyrrolo[1,2-a]pyrazine] |
| 6810 nM | O=S(=O)(c1ccc2c(c1)CCO2)N1CCN2C[C@H](Oc3cnc(C4CC4)cn3)C[C@H]2C1 [Example 114, (7R,8aS)-7-[(5-cyclopropylpyrazin-2-yl)oxy]-2-(2,3-dihydro-1-benzofuran-5-ylsulfonyl)octahydropyrrolo[1,2-a]pyrazine] |
| 1960 nM | C=C(C)c1cnc(O[C@@H]2C[C@H]3CN(S(=O)(=O)c4cccc(C(F)(F)F)c4)CCN3C2)cn1 [Example 115, (7R,8aS)-7-{[5-(prop-1-en-2-yl)pyrazin-2-yl]oxy}-2-{[3-(trifluoromethyl)-phenyl]sulfonyl}octahydropyrrolo[1,2-a]pyrazine] |
| 2570 nM | C=C(C)c1cnc(O[C@@H]2C[C@H]3CN(S(=O)(=O)c4ccc(C(F)(F)F)cc4)CCN3C2)cn1 [Example 116, (7R,8aS)-7-{[5-(prop-1-en-2-yl)pyrazin-2-yl]oxy}-2-{[4-(trifluoromethyl)-phenyl]sulfonyl}octahydropyrrolo[1,2-a]pyrazine] |
| 470 nM | CC(C)c1cnc(O[C@@H]2C[C@H]3CN(S(=O)(=O)c4cccc(C(C)(C)C)c4)CCN3C2)cn1 [Example 117, (7R,8aS)-2-[(3-tert-butylphenyl)sulfonyl]-7-[(5-isopropylpyrazin-2-yl)-oxy]octahydropyrrolo[1,2-a]pyrazine] |
| 490 nM | CC(C)c1cnc(O[C@@H]2C[C@H]3CN(S(=O)(=O)c4cccc(C(F)(F)F)c4)CCN3C2)cn1 [Example 118, (7R,8aS)-7-[(5-isopropylpyrazin-2-yl)oxy]-2-{[3-(trifluoromethyl)-phenyl]sulfonyl}octahydropyrrolo[1,2-a]pyrazine] |
| 3150 nM | O=S(=O)(c1cc(F)c(F)c(F)c1)N1CCN2C[C@H](Oc3cnc(C4CC4)cn3)C[C@H]2C1 [Example 119, (7R,8aS)-7-[(5-cyclopropylpyrazin-2-yl)oxy]-2-[(3,4,5-trifluorophenyl)-sulfonyl]octahydropyrrolo[1,2-a]pyrazine] |
| 720 nM | O=S(=O)(c1cccc(Cl)c1F)N1CCN2C[C@H](Oc3cnc(C4CC4)cn3)C[C@H]2C1 [Example 120, (7R,8aS)-2-[(3-chloro-2-fluorophenyl)sulfonyl]-7-[(5-cyclopropylpyrazin-2-yl)oxy]octahydropyrrolo[1,2-a]pyrazine] |
| 1550 nM | Cc1ccc(F)c(S(=O)(=O)N2CCN3C[C@H](Oc4cnc(C5CC5)cn4)C[C@H]3C2)c1 [Example 121, (7R,8aS)-7-[(5-cyclopropylpyrazin-2-yl)oxy]-2-[(2-fluoro-5-methylphenyl)-sulfonyl]octahydropyrrolo[1,2-a]pyrazine] |
